{"source": "PubChem BioAssay AID903", "about": "(National Center for Advancing Translational Sciences (NCATS), 2007)", "note": "About 340 (0.62%) of roughly 55,000 compounds were called active. The inconclusive results got no clear call from the source; some entries with a clear call stand among them for comparison. Calls follow the shape of the dose curve; as a rule, active = well fitted cell-killing curve with a large enough effect; inconclusive = small, poorly fitted or top-dose-only effect; inactive = no such curve, though single readings can be large or run the other way. A potency beside an inconclusive call is a rough fit, not a confirmed value. Potency is read from the fitted curve at half-maximal effect; tags tell the direction and shape of the fitted curve."}
{"assay": "qHTS Screen for Compounds that Selectively Target Cancer Cells with p53 Mutations: Cytotoxicity of p53 Null Cells at the Permissive Temperature; also: nearly all actives have a fitted effect of over 55% in size;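 as to activity change, negative = cytotoxicity: 0% = DMSO only and -100% = full killing by 100 µM tamoxifen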", "conditions": "H1299-neo p53 null cells, ATP luminescence, 24 h, 32C; series mostly up to 46.1 µM; activity change, negative = cytotoxicity: at the top concentration", "in_short": "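We seeded p53-null H1299-neo cells, incubated them overnight at 37C, and added compounds across a range up to 46 uM. After 24 hours at 32C, ATP reagent was applied for 20 min at room temperature and luminescence recorded.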"}
{"smiles": "Cc1cccc(OCC(=O)Nc2ccc(-c3nc4cc(C)ccc4o3)c(O)c2)c1", "Potency": "inconclusive: 12.6 µM [cytotoxic, single point]"}
{"smiles": "Cc1cc(C)cc(NC(=O)CN(C)S(=O)(=O)c2ccc3[nH]c4c(c3c2)CCCC4)c1", "activity change, negative = cytotoxicity": "inactive: 5.85%"}
{"smiles": "N#C/C(=C\\c1ccc(-c2ccc(F)cc2F)o1)c1nc2ccccc2[nH]1", "Potency": "inconclusive: 20 µM [cytotoxic, single point]"}
{"smiles": "CN(C)c1ccc(C(=O)c2ccc(O)cc2O)cc1", "Potency": "inconclusive: 15.8 µM [cytotoxic, single point]"}
{"smiles": "Cc1ccc(-n2ncc3c(NC(C)c4ccccc4)ncnc32)cc1", "note": "(centres undefined)", "Potency": "inconclusive: 17.8 µM [cytotoxic, partial curve, poor fit]"}
{"smiles": "CC(C)OCCCNc1ncnc2sc3c(c12)CCCC3", "activity change, negative = cytotoxicity": "inactive: -2.78%"}
{"smiles": "COc1ccc(-n2c(=O)c3sc4ccccc4c3n(C)c2=O)cc1", "Potency": "inconclusive: 5.01 µM [cytotoxic, single point]"}
{"smiles": "Cc1ccc(NC(=O)Cn2nc(C(F)(F)F)c3c2CCCC3)cc1C", "activity change, negative = cytotoxicity": "inactive: -4.73%"}
{"smiles": "CSc1cccc(NC(=O)Nc2ccccc2OCc2cc(=O)n3cc(C)ccc3n2)c1", "Potency": "inconclusive: 15.8 µM [cytotoxic, single point]"}
{"smiles": "CCOCCCNC(=O)c1ccc(-n2c(-c3ccccc3)cc3c2CCC(C)C3)cc1", "note": "(centres undefined)", "activity change, negative = cytotoxicity": "inactive: -14.1%"}
{"smiles": "Cc1cccc(C)c1Nc1c(-c2ccccn2)nc2c(C)cccn12", "activity change, negative = cytotoxicity": "inactive: 12.5%"}
{"smiles": "Cc1ccc(NC(=O)c2ccccc2O)cc1", "Potency": "active: 12.6 µM"}
{"smiles": "CCc1cccc(C)c1NC(=O)Cn1nc(C)n2cccc2c1=O", "activity change, negative = cytotoxicity": "inactive: -2.55%"}
{"smiles": "CCN(CC)S(=O)(=O)c1ccc2nc(NC(=O)c3cncc(Br)c3)sc2c1", "Potency": "inconclusive: 12.6 µM [cytotoxic, partial curve]"}
{"smiles": "COc1ccc(NCc2cccn2-c2nnc(N3CCCCC3)s2)cc1OC", "activity change, negative = cytotoxicity": "inactive: -5.94%"}
{"smiles": "COc1ccc(CCNc2ncnc3c2cnn3-c2cc(Cl)ccc2C)cc1", "Potency": "inconclusive: 31.6 µM [cytotoxic, single point]"}
{"smiles": "CN1CCc2c(sc3c2C(=O)NC(c2ccc(C(C)(C)C)cc2)N3)C1", "note": "(centres undefined)", "activity change, negative = cytotoxicity": "inactive: -3.53%"}
{"smiles": "Fc1cccc(-c2nnn3c2nc(NC2CCCCC2)c2ccccc23)c1", "Potency": "inconclusive: 2.82 µM [cytotoxic, partial curve]"}
{"smiles": "COc1ccc(-c2nc(S(=O)(=O)c3ccc(Cl)cc3)c(NCc3ccccc3)o2)cc1", "activity change, negative = cytotoxicity": "inactive: 4.04%"}
{"smiles": "Cc1ccc(Cl)cc1-n1ncc2c(N3CCN(Cc4ccccc4)CC3)ncnc21", "Potency": "inconclusive: 25.1 µM [cytotoxic, single point]"}
{"smiles": "O=C(NCc1cccs1)c1ccc([N+](=O)[O-])cc1Cl", "Potency": "inconclusive: 10 µM [cytotoxic, partial curve, poor fit]"}
{"smiles": "CCc1ccc(N(CC)C(=O)Cn2nc(Cc3cccnc3)c3ccccc3c2=O)cc1", "Potency": "inconclusive: 17.8 µM [cytotoxic, single point]"}
{"smiles": "O=C1N(Cc2ccccc2Cl)c2ccccc2C1(O)c1c[nH]c2ccccc12", "note": "(centres undefined)", "activity change, negative = cytotoxicity": "inactive: 10.3%"}
{"smiles": "COc1ccccc1NC(=O)c1c(NCc2ccc(C)o2)sc2c1CCCCC2", "Potency": "inconclusive: 0.01 µM [cytotoxic, full curve, poor fit]"}
{"smiles": "COc1cccc(CNC(=O)Cn2nc(-c3ccc(Cl)cc3)ccc2=O)c1", "activity change, negative = cytotoxicity": "inactive: -12.2%"}
{"smiles": "CCCCN(CC)C(=O)c1nn(C)c2c1CSc1ccccc1-2", "Potency": "inconclusive: 20 µM [cytotoxic, single point]"}
{"smiles": "Cc1nn(-c2ccc(N3CCCCC3)nn2)c(C)c1CCC(=O)Nc1ccc(F)cc1F", "Potency": "inconclusive: 12.6 µM [cytotoxic, single point]"}
{"smiles": "COc1cccc(NC(=O)CC(=O)Nc2ccc3nc4n(c(=O)c3c2)CCCCC4)c1", "activity change, negative = cytotoxicity": "inactive: -3.8%"}
{"smiles": "Cc1n[nH]c(C)c1S(=O)(=O)N(CC(=O)Nc1ccc(C(F)(F)F)cc1)c1ccc(C(C)C)cc1", "Potency": "inconclusive: 22.4 µM [cytotoxic, single point]"}
{"smiles": "COc1ccc(-c2cc(C(F)(F)F)nc(SCCC(=O)Nc3cc(C)ccc3O)n2)cc1", "activity change, negative = cytotoxicity": "inactive: -2.48%"}
{"smiles": "COc1ccc(CCNC(=O)CCCn2c(=O)c3ccccc3n(CC(=O)Nc3cc(Cl)ccc3C)c2=O)cc1OC", "Potency": "inconclusive: 31.6 µM [cytotoxic, single point]"}
{"smiles": "CCOc1ccccc1NC(=O)Cn1c(=O)n(-c2ccc(F)cc2)c(=O)c2sc3ccccc3c21", "Potency": "inconclusive: 1.78 µM [cytotoxic, partial curve]"}
{"smiles": "COc1ccc(C(=O)Nc2ccc3nc(N4CCC(C)CC4)cc(C)c3c2)cc1", "Potency": "inconclusive: 15.8 µM [cytotoxic, single point]"}
{"smiles": "CCc1ccc(CNC(=O)c2nn(-c3ccc(C)cc3)c(=O)c3c2c2ccccc2n3C)cc1", "activity change, negative = cytotoxicity": "inactive: 3.61%"}
{"smiles": "CCCn1c(=O)n(-c2ccccc2Cl)c(=O)c2sc3ccccc3c21", "Potency": "inconclusive: 4.47 µM [cytotoxic, single point]"}
{"smiles": "Cc1c(C(=O)Nc2cccc(C(F)(F)F)c2)oc2ccc3c(c12)C(=O)CC(C)(C)O3", "Potency": "inconclusive: 10 µM [cytotoxic, partial curve]"}
{"smiles": "CCc1ccc(/C=C2/C(=O)N(c3ccccc3)C(=S)N2CC(=O)OC)s1", "Potency": "inconclusive: 20 µM [cytotoxic, single point]"}
{"smiles": "COc1cc(Cl)c(C)cc1NC(=O)C1CCN(c2nc3ccccc3n3cccc23)CC1", "Potency": "inconclusive: 25.1 µM [cytotoxic, single point]"}
{"smiles": "NC(=O)C1CCN(C(=O)c2ccc(NC(=O)c3nsc4ccccc34)cc2)CC1", "Potency": "active: 2.51 µM"}
{"smiles": "CC(C)(C)n1ncc2c(=O)n(CC(=O)c3ccccc3)cnc21", "activity change, negative = cytotoxicity": "inactive: -15.8%"}
{"smiles": "Cc1nnc2c(N3CCN(c4ccc(F)cc4)CC3)nc3ccc(C(=O)c4ccccc4)cc3n12", "activity change, negative = cytotoxicity": "inactive: 11.5%"}
{"smiles": "CCc1ccc(NC(=O)Nc2ccccc2OCc2cc(=O)n3ccccc3n2)cc1", "Potency": "inconclusive: 1.26 µM [cytotoxic, full curve]"}
{"smiles": "COc1ccc(-c2cn3cccnc3n2)cc1NC(=O)Nc1cc(C)ccc1C", "Potency": "inconclusive: 31.6 µM [cytotoxic, single point]"}
{"smiles": "CC(C)c1ccc(C2=CC(c3cccc(Cl)c3)n3c(nc4ccccc43)N2)cc1", "note": "(centres undefined)", "Potency": "active: 22.4 µM"}
{"smiles": "CCOc1ccc(Br)cc1C1C(C(=O)OC)=C(C)NC2=C1C(=O)c1ccccc12", "note": "(centres undefined)", "activity change, negative = cytotoxicity": "inactive: 4.02%"}
{"smiles": "CCCc1ccc(S(=O)(=O)N2CCC(c3nnc(-c4cccc(C)c4)o3)CC2)cc1", "Potency": "inconclusive: 3.55 µM [cytotoxic, single point]"}
{"smiles": "Fc1ccc(-c2cn3cc(Cc4ccccc4Cl)sc3n2)cc1", "Potency": "inconclusive: 10 µM [cytotoxic, partial curve]"}
{"smiles": "CC(=O)c1ccc(NC(=O)Nc2ccc([N+](=O)[O-])cc2C)cc1", "activity change, negative = cytotoxicity": "inactive: -16.8%"}
{"smiles": "Cc1ccc(NC2=C(NC(=O)c3ccccc3)C(=O)c3ccccc3C2=O)cc1Cl", "Potency": "inconclusive: 35.5 µM [cytotoxic, single point]"}
{"smiles": "CCOc1ccccc1N1CC(c2nc3ccccc3n2CCCCOc2cc(C)ccc2C)CC1=O", "note": "(centres undefined)", "Potency": "inconclusive: 25.1 µM [cytotoxic, single point]"}
{"smiles": "COc1cc(C(=O)Nc2ccc(OCc3cc(=O)n4cccc(C)c4n3)cc2)cc(OC)c1OC", "Potency": "inconclusive: 31.6 µM [cytotoxic, single point]"}
{"smiles": "CCc1ccc(OCC(=O)Nc2ccc3oc(-c4ccc(OC)cc4)nc3c2)cc1", "activity change, negative = cytotoxicity": "inactive: -4.61%"}
{"smiles": "Cc1c(C(=O)OCCOc2ccccc2)[nH]c2c1C(=O)CC(c1ccccc1Cl)C2", "note": "(centres undefined)", "activity change, negative = cytotoxicity": "inactive: 11.5%"}
{"smiles": "COc1ccc(NC(=O)Cn2cc(C(=O)c3cccs3)c3ccccc32)cc1", "Potency": "inconclusive: 0.0032 µM [cytotoxic, full curve, poor fit]"}
{"smiles": "Cc1ccc(C)c(NC(=O)Nc2csc3c2CCCC3)c1", "Potency": "inconclusive: 44.7 µM [cytotoxic, partial curve, poor fit]"}
{"smiles": "COc1cccc(Cn2cnc3c2c(=O)n(C)c(=O)n3C)c1", "activity change, negative = cytotoxicity": "inactive: -5.8%"}
{"smiles": "COc1cccc(NC(=O)C2CCCN2S(=O)(=O)c2ccc3c(c2)n(C)c(=O)c(=O)n3C)c1", "note": "(centres undefined)", "Potency": "inconclusive: 35.5 µM [cytotoxic, single point]"}
{"smiles": "CCC(=O)C1=C(c2cccc([N+](=O)[O-])c2)N(C(=O)CC)n2c(nnc2C2CCCCC2)S1", "activity change, negative = cytotoxicity": "inactive: -3.05%"}
{"smiles": "Cc1cccc(C)c1NC(=O)CCS(=O)(=O)c1ccc2c(c1)n(C)c(=O)c(=O)n2C", "activity change, negative = cytotoxicity": "inactive: 3.06%"}
{"smiles": "O=C(Cc1ccccc1)Nc1sc2c(c1C(=O)Nc1ccccc1Cl)CCCC2", "activity change, negative = cytotoxicity": "inactive: 8.28%"}
{"smiles": "Cc1ccc(NC(=O)CSc2nnc(NC(=O)NC3CCCCC3)s2)cc1", "Potency": "inconclusive: 3.98 µM [cytotoxic, full curve]"}
{"smiles": "O=C(Nc1ccc2nc(-c3cccnc3)[nH]c2c1)C12CC3CC(CC(C3)C1)C2", "Potency": "inconclusive: 11.2 µM [cytotoxic, partial curve]"}
{"smiles": "COc1ccc(-c2noc(COc3ccc(C)cc3C)n2)cc1OC", "activity change, negative = cytotoxicity": "inactive: -9.76%"}
{"smiles": "CCOC(=O)c1ccc(NC(=O)c2c(NCc3ccc(OC)c(OC)c3OC)sc3c2CCC(C)C3)cc1", "note": "(centres undefined)", "Potency": "inconclusive: 2.51 µM [cytotoxic, partial curve, poor fit]"}
{"smiles": "O=C(Nc1ccc(OC(F)(F)F)cc1)c1nc2ccccc2nc1N1CCCCC1", "Potency": "inconclusive: 5.62 µM [cytotoxic, single point]"}
{"smiles": "Cc1ccc(NC(=O)Cn2nc(-c3ccncc3)ccc2=O)cc1Cl", "Potency": "inconclusive: 5.62 µM [cytotoxic, single point]"}
{"smiles": "Cc1ccc(C)c(CN2CCC(CNC(=O)Nc3ccc(Br)cc3F)CC2)c1", "activity change, negative = cytotoxicity": "inactive: -1.33%"}
{"smiles": "Cc1ccc(C)c(CNC(=O)c2ccc3c(c2)nc2n3CCCCC2)c1", "Potency": "inconclusive: 14.1 µM [cytotoxic, partial curve]"}
{"smiles": "O=C(Nc1c(C(=O)Nc2ccc(F)cc2)oc2ccccc12)c1cc2ccccc2o1", "Potency": "inconclusive: 12.6 µM [cytotoxic, partial curve]"}
